Laboratory results reported in the supplement of paper PMC4967469.

How the values were obtained:
Assay in all cases: Viability of human cancer cell lines after 72 h of drug (GDSC screen)
Midostaurin = compound: CO[C@@H]1[C@H](N(C)C(=O)c2ccccc2)C[C@H]2O[C@]1(C)n1c3ccccc3c3c4c(c5c6ccccc6n2c5c31)C(=O)NC4 [Midostaurin]; details: top dose 0.512 µM; top dose inferred
Method: (§1)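 Human cancer cell lines in 384-well plates, medium with 10% serum, drug for 72 h over a 256-fold dose range (nine 2-fold or five 4-fold steps up to the top dose). Adherent lines were fixed and stained with the nucleic acid dye Syto60, suspension lines read with resazurin; signal relative to control wells, capped at 0 and 100%. One two-parameter sigmoid per drug and line, fitted in a mixed model over all curves with the slope shared within a line.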

Mitomycin C = compound: CO[C@@]12[C@H](COC(N)=O)C3=C(C(=O)C(C)=C(N)C3=O)N1C[C@@H]1N[C@@H]12 [Mitomycin C]; details: top dose 16 µM
Method: as §1

Bosutinib = compound: COc1cc(Nc2c(C#N)cnc3cc(OCCCN4CCN(C)CC4)c(OC)cc23)c(Cl)cc1Cl [Bosutinib]; details: top dose 2 µM
Method: as §1

IOX2 = compound: O=C(O)CNC(=O)c1c(O)c2ccccc2n(Cc2ccccc2)c1=O [IOX2]; details: top dose 0.1 µM; top dose inferred
Method: as §1

NVP-BHG712 = compound: Cc1ccc(C(=O)Nc2cccc(C(F)(F)F)c2)cc1Nc1nc(-c2cccnc2)nc2c1cnn2C [NVP-BHG712]; details: top dose 10.24 µM; top dose inferred
Method: as §1

Cell Line	AUC (Midostaurin)	IC50 (Midostaurin) [nM]	AUC (Mitomycin C)	IC50 (Mitomycin C) [nM]	AUC (Bosutinib)	IC50 (Bosutinib) [nM]	AUC (IOX2)	IC50 (IOX2) [nM]	AUC (NVP-BHG712)	IC50 (NVP-BHG712) [nM]
SCC90 (head and neck, adherent)	0.821	479	0.608	2240	0.899	> 2000	0.851	> 100	–	–
KS-1 (glioma, adherent)	0.702	138	0.291	220	0.931	> 2000	0.977	> 100	0.875	> 10200
AGS (stomach, adherent)	0.778	185	0.166	112	0.971	> 2000	0.961	> 100	0.817	4970
HCC1937 (breast, adherent)	0.976	> 512	0.411	549	0.851	1910	0.98	> 100	0.958	> 10200
NCI-H647 (non-small cell lung carcinoma, adherent)	0.794	248	0.414	573	0.948	> 2000	–	–	0.942	> 10200
NCI-H2452 (mesothelioma, adherent)	0.929	> 512	0.817	11200	0.967	> 2000	0.981	> 100	0.978	> 10200
HCC-15 (lung squamous cell carcinoma, adherent)	0.877	> 512	0.336	306	0.952	> 2000	0.98	> 100	0.929	> 10200
KYSE-140 (oesophagus, adherent)	0.906	> 512	0.399	508	0.748	719	0.967	> 100	0.817	6740
CAL-72 (osteosarcoma, adherent)	0.958	> 512	0.835	13300	0.981	> 2000	0.976	> 100	0.984	> 10200
SK-MES-1 (lung squamous cell carcinoma, adherent)	0.819	325	0.178	96.1	0.879	> 2000	0.978	> 100	0.914	> 10200
SU8686 (pancreas, adherent)	0.954	> 512	0.385	463	0.934	> 2000	0.941	> 100	0.969	> 10200
SW1783 (glioma, adherent)	0.895	> 512	0.114	68.2	0.991	> 2000	0.885	91	0.991	> 10200
NUGC-4 (stomach, adherent)	0.847	379	0.245	184	0.898	> 2000	0.951	> 100	0.724	2780
HDQ-P1 (breast, adherent)	0.918	> 512	0.58	1720	0.905	> 2000	0.983	> 100	0.985	> 10200
LN-405 (glioma, adherent)	0.983	> 512	0.613	2220	0.982	> 2000	0.981	> 100	0.98	> 10200
NCI-H1437 (lung adenocarcinoma, adherent)	0.949	> 512	0.197	120	0.956	> 2000	0.971	> 100	0.967	> 10200
SK-N-SH (neuroblastoma, adherent)	0.759	178	0.108	< 62.5	0.987	> 2000	0.982	> 100	0.967	> 10200
HCC-78 (lung adenocarcinoma, adherent)	0.929	> 512	0.405	524	0.979	> 2000	0.961	> 100	0.917	> 10200
MKN28 (stomach, adherent)	0.915	> 512	0.264	208	0.883	> 2000	0.969	> 100	0.96	> 10200
Detroit562 (head and neck, adherent)	0.906	> 512	0.236	179	0.94	> 2000	0.987	> 100	0.976	> 10200
BICR78 (head and neck, adherent)	0.92	> 512	0.572	1620	0.581	216	0.981	> 100	0.979	> 10200
KMRC-20 (kidney, adherent)	0.632	74.5	0.402	536	0.948	> 2000	0.986	> 100	0.979	> 10200
WM278 (melanoma, adherent)	0.933	> 512	0.299	251	0.905	> 2000	0.973	> 100	0.854	9760
BT-20 (breast, adherent)	0.941	> 512	0.351	349	0.961	> 2000	0.982	> 100	0.962	> 10200
NCI-H2405 (lung adenocarcinoma, adherent)	0.859	499	0.351	368	0.982	> 2000	0.984	> 100	0.845	8640
451Lu (melanoma, adherent)	0.957	> 512	0.342	372	0.82	1090	0.985	> 100	0.876	9380
RKN (ovary, adherent)	0.935	> 512	0.733	4830	0.905	> 2000	0.971	> 100	0.827	6750

Cell Line	AUC (Midostaurin)	IC50 (Midostaurin) [nM]	AUC (Mitomycin C)	IC50 (Mitomycin C) [nM]	AUC (Bosutinib)	IC50 (Bosutinib) [nM]	AUC (IOX2)	IC50 (IOX2) [nM]	AUC (NVP-BHG712)	IC50 (NVP-BHG712) [nM]
WM793B (melanoma, adherent)	0.892	> 512	0.183	98.2	0.924	> 2000	0.968	> 100	0.815	6380
H290 (mesothelioma, adherent)	0.893	> 512	0.315	321	0.813	969	0.988	> 100	–	–
COLO-320-HSR (large intestine, suspension)	0.989	> 512	0.505	1030	0.99	> 2000	0.991	> 100	0.899	9960
Mewo (melanoma, adherent)	0.974	> 512	0.8	–	0.887	> 2000	0.982	> 100	0.984	> 10200
8305C (thyroid, adherent)	0.862	> 512	0.273	182	0.928	> 2000	0.972	> 100	0.957	> 10200
NY (osteosarcoma, adherent)	0.728	141	0.459	774	0.966	> 2000	0.978	> 100	0.989	> 10200
JHU-029 (head and neck, adherent)	0.824	402	0.334	307	0.658	382	0.977	> 100	–	–
VMRC-RCW (kidney, adherent)	0.892	> 512	0.288	266	0.981	> 2000	–	–	0.964	> 10200
201T (lung adenocarcinoma, adherent)	0.72	161	0.048	< 62.5	0.943	> 2000	–	–	0.949	> 10200
LOU-NH91 (lung squamous cell carcinoma, adherent)	0.847	431	0.709	4130	0.605	249	–	–	0.966	> 10200
NCI-H1734 (lung adenocarcinoma, adherent)	0.851	456	0.241	163	0.976	> 2000	–	–	0.95	> 10200
KYSE-450 (oesophagus, adherent)	0.847	346	0.394	521	0.89	> 2000	–	–	0.905	> 10200
SAT (head and neck, adherent)	0.914	> 512	0.729	6580	0.677	514	–	–	0.948	> 10200
PA-1 (ovary, adherent)	0.799	187	0.116	92	0.952	> 2000	–	–	0.882	6880
NCI-H2052 (mesothelioma, adherent)	0.821	410	0.587	1850	0.968	> 2000	–	–	0.97	> 10200
OCUM-1 (stomach, adherent)	0.912	> 512	0.365	406	0.947	> 2000	–	–	0.987	> 10200
SW1463 (large intestine, adherent)	0.962	> 512	0.584	2000	–	–	0.974	> 100	0.949	> 10200
H2818 (mesothelioma, adherent)	0.731	149	0.823	9770	–	–	0.984	> 100	0.989	> 10200
NUGC-3 (stomach, adherent)	0.914	> 512	0.108	< 62.5	–	–	0.982	> 100	0.955	> 10200
KMS-12-BM (myeloma, suspension)	0.966	> 512	0.537	1240	0.715	446	–	–	0.97	> 10200
STS-0421 (soft tissue, adherent)	0.836	421	0.337	325	0.96	> 2000	0.97	> 100	–	–
NCI-H3122 (lung adenocarcinoma, adherent)	0.909	> 512	0.119	< 62.5	0.987	> 2000	–	–	0.918	> 10200
NCI-H2170 (lung squamous cell carcinoma, adherent)	0.841	379	0.049	< 62.5	–	–	0.986	> 100	0.985	> 10200
Hs940-T (melanoma, adherent)	0.459	24.1	0.35	351	–	–	0.973	> 100	0.984	> 10200
SW1088 (glioma, adherent)	0.764	240	0.684	3830	–	–	0.979	> 100	0.923	> 10200
H2591 (mesothelioma, adherent)	0.938	> 512	0.547	1390	–	–	0.98	> 100	0.885	> 10200
PANC-10-05 (pancreas, adherent)	0.821	412	0.218	114	–	–	0.979	> 100	0.964	> 10200

Lines with a small IC50 respond at low doses; fits outside the tested doses are given as limits. For AUC the same curve is integrated over the 256-fold range of doses and scaled to a fraction: 1 means no effect, lower means more sensitive. For some assays here: An inferred top dose was calculated from the reported fits.
